From the supplement of paper PMC10126150
Values marked as one replicate rest on one cluster of the flow cell; about a third of the high ones do not repeat.

System: ATP
Assay: switch fluorescence ratio, 500 uM ATP over buffer (Cy3 cluster intensity, sum of 5 cycles each) (fold (ratio)); higher = stronger signal-on switching upon ATP binding; sequences stand for … in TCGTCGGCAGCGTCAGATGTGTATAAGAGACAGTTTTTTTTTTTTTTTTTTTTTTTTT…TC
Settings: aptamer strand: ATP DNA aptamer (quencher-CACCTGGGGGAGTATTGCGGAGGAAGG + anchor), 100 nM annealed; ATP concentration: 500 uM; one replicate
Procedure, shortened: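 Per cluster, summed Cy3 intensity from the target cycles was divided by that from the buffer cycles to give the fluorescence ratio, then averaged per switch-domain sequence. Clusters outside 100-1000 RFU were excluded. The Cy3-labelled switching-strand clusters, on a modified Illumina MiSeq flow-cell, were annealed to 100 nM quencher-labelled ATP aptamer and imaged in selection buffer, then after 15 min with 500 uM ATP at 22 °C, for five cycles with NaOH stripping and re-annealing between them.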
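Note: ATP exposure 15 min at 22 °C before imaging.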

| Sequence | switch fluorescence ratio |
| --- | --- |
| TTTCCTAGG | 0.988 |
| CCTCAGGTCC | 1.37 |
| TCTATCGGCT | 0.961 |
| ATAATGGCGT | 0.989 |
| TTCAGGGATC | 1.12 |
| TTCGTTTAAA | 1.02 |
| TTCCACATC | 1.03 |
| CCTCGGGGGC | 1.19 |
| TACCCGAAAA | 2.11 |
| TCATCAATGA | 1.02 |
| GATTCTTT | 0.999 |
| GGGCCGTTCG | 1 |
| TGGGAATAAG | 0.962 |
| AACTCTGCT | 1.05 |
| CAGCTGG | 1.06 |
| CGATTGTCAG | 0.99 |
| AGTGCTTTGC | 1.01 |
| GATCAATGTA | 0.968 |
| TAAGCCCTTT | 1.04 |
| TACAGTACAT | 1.29 |
| TATGTAAACC | 1.03 |
| GACATGGTA | 1.03 |
| AAGAGGGAAG | 1.01 |
| AGTCTTCGGA | 1.02 |
| CTGCTCACTT | 0.979 |
| CGTGCAGGAA | 0.988 |

| Sequence | switch fluorescence ratio |
| --- | --- |
| TAATAAGTAT | 1.43 |
| TGGATATTGT | 0.994 |
| TGTAGACATC | 0.982 |
| CGTCTATTCT | 0.976 |
| TGAAGAGCTG | 1.02 |
| TGGATGCTTA | 0.974 |
| ATTTAATGGT | 0.956 |
| CAGGCGATTC | 1.21 |
| AGGCAAGCTG | 1.02 |
| TCGGCGCCTG | 0.987 |
| CTTCTTACTA | 1.06 |
| TACAGAAATG | 1.01 |
| TTGGAACGCA | 1.13 |
| GGTTGGTAGA | 1.01 |
| GTGCTATGTA | 1 |
| TCCACGTTTT | 0.96 |
| ATTAGGAACC | 1.03 |
| CAGGTCCTTC | 0.971 |
| CTAGCGCCTC | 1.11 |
| TCTAAGTTAG | 0.976 |
| CGTTCAGAT | 1.14 |
| TAGGTGTAGA | 0.974 |
| TAGGATCCTT | 1.02 |
| GTAGGAATGA | 1.1 |
| GAAAGCCGCG | 1.03 |
| GTGGTCGGTG | 1.01 |

| Sequence | switch fluorescence ratio |
| --- | --- |
| AATCAGCAGG | 1.06 |
| TCAATGCGA | 1.19 |
| ATGCTATTTA | 0.979 |
| TTATGATAAG | 0.977 |
| AGGCTAGAAT | 0.951 |
| GCAGTGTCAT | 1.04 |
| ATGCTTTTCT | 0.989 |
| AGTAGGTAAG | 0.984 |
| CACTAAGGAT | 1.27 |
| CGTTTCTTCA | 1.02 |
| TACTGTTACT | 1.32 |
| GCGTGTTCA | 1 |
| TGGGCGTCG | 0.98 |
| TTTTCGACAT | 1.01 |
| TGGAGCTCAC | 1.44 |
| GAGGCGCGTC | 1.02 |
| AAAGGATTAG | 1 |
| TCATATTGGG | 1.01 |
| CCGATCTATC | 2.08 |
| GGTCTATGCG | 0.981 |
| AAGGACGAAT | 1.02 |
| GAATCCGCCT | 1.21 |
| GATACAGGGT | 1.03 |
| AGAGTAGGGC | 1.09 |
| CAATTAATCT | 1 |
| TAACACGCTC | 1.01 |

| Sequence | switch fluorescence ratio |
| --- | --- |
| ATAGCTTACC | 1.14 |
| TATCAGGTAT | 1.05 |
| AGGACGTCGG | 1.06 |
| ACGGGATTGT | 1.05 |
| ATGGCGGTTT | 0.989 |
| ATCACCTAGC | 1.08 |
| GCTGGATGAG | 0.996 |
| ATTCAAAAGT | 1.05 |
| CAATGTCTA | 1.01 |
| GATAGAGGT | 1.01 |
| TGCTAATT | 0.991 |
| GTTTGATAG | 1.02 |
| AGCCTACTGA | 1.04 |
| GGCACTGGGA | 0.995 |
| AATGGAATGT | 0.989 |
| AAGTGATGGA | 0.997 |
| GTAGTCTAAT | 0.935 |
| AAACTATTCA | 1.04 |
| CTGGGTGTCG | 1.06 |
| GCTGGGAACA | 0.992 |
| CATGTGAGTG | 0.963 |
| GCACCATGGT | 1.03 |
| TTACGTGGTC | 0.988 |
| TGCAGCAGCA | 1.02 |
| ACAGGTTCCT | 1.09 |
| ACTGATATGT | 1.02 |

| Sequence | switch fluorescence ratio |
| --- | --- |
| ACTCCTGTTT | 1.14 |
| TTCTAGAGGT | 0.971 |
| CCACGTAGCT | 1.24 |
| CTAGTGTCTA | 1.04 |
| TTAAGACCCA | 1.04 |
| AACAAACGC | 1.31 |
| CCGTTCAACA | 1.09 |
| CTATGTTTCC | 1 |
| AGGAATTGTG | 0.996 |
| TTCGGGGAC | 1.06 |
| CCTATACAGG | 1.12 |
| CGAATTTACT | 0.987 |
| ATTAGGCCGA | 0.982 |
| GGAAGGTAAA | 1.06 |
| CTACTCTGGT | 0.996 |
| GTTGCGATGG | 1.07 |
| CTTAACCAG | 0.963 |
| TGTCTTCCTT | 1.05 |
| TAAAAAACTC | 1.1 |
| CTCCCAGCGC | 1.81 |
| TTCGTCCATT | 0.965 |
| TTGGTCACTG | 0.988 |
| TAGTGCACTT | 0.98 |
| TTGTTGACCT | 1.04 |
| TGCGTGCTCT | 1.02 |
| CCATGTCTAG | 1.03 |

| Sequence | switch fluorescence ratio |
| --- | --- |
| GGGCCTATGG | 1.08 |
| GACTAGCTAT | 1.1 |
| CGCATTGGGC | 1.23 |
| CCCTGACCTA | 1.1 |
| TCATCGTGTC | 0.968 |
| CGGCTTGATT | 1.02 |
| TTAATCCCCT | 1.03 |
| CCCTGTCTGG | 1.02 |
| CTAAGGTGCT | 1.37 |
| GGGTTTGTGA | 0.975 |
| GGCGTACATA | 0.987 |
| GCTACTTCTG | 0.998 |
| GTAAGAGCTT | 0.963 |
| TTTTTTCCTA | 1.06 |
| TCAGAGGCGC | 0.985 |
| CAGGCAAATC | 1.37 |
| GTTGGTAGCT | 1.03 |
| ATATTCTTT | 1.01 |
| AAGATAATCT | 0.99 |
| GGGATTCT | 1.05 |
| CTTTTGAGTG | 0.949 |
| AAAGTTCAGC | 0.997 |
| TATGCGCAAA | 1.32 |
| CATCGGGTAC | 1.79 |
| TATACGTGTT | 1.01 |
| CCGGCTGC | 1.22 |

| Sequence | switch fluorescence ratio |
| --- | --- |
| TGGACTAAAA | 0.972 |
| TCGCAACTGT | 1.41 |
| ATCCCTTGCG | 1 |
| TAATGAGCCG | 1.08 |
| AAGAATCTCA | 0.995 |
| ATTCATGGCC | 0.967 |
| TGGCTAGTTT | 0.965 |
| ATCAGCAGGT | 1.02 |
| CAAGCCACTG | 1.05 |
| CACCAAGTAT | 0.983 |
| ATATCTCTAA | 1.01 |
| ACACCGGTGC | 1.07 |
| AAAATGGCGG | 1.02 |
| GGTGACTGGT | 1.03 |
| TCTGTGATGT | 1.03 |
| TGGAAAAGAA | 1.08 |
| GGCATTAGAC | 1.06 |
| TCAAAGCCCA | 0.999 |
| GGGGTCTTCA | 1.04 |
| TCGGCACCA | 1.01 |
| AGAGGTACAG | 1.03 |
| GCCTACAGTG | 1.11 |
| ACTTATGGTG | 0.975 |
| TCCTAAGAGG | 1.03 |
| ACAGCTCCTC | 1.04 |
| GAACTTGAAA | 0.967 |

| Sequence | switch fluorescence ratio |
| --- | --- |
| TGTACTACTG | 0.99 |
| CTGAAGCTTT | 1.85 |
| ACCCACCTCA | 1.34 |
| CGAGCATACG | 2.3 |
| TCCGAACATC | 1.79 |
| GCCACATAGA | 0.991 |
| TGTTTTCCA | 0.939 |
| TAAAAAGCCG | 1.04 |
| CACGAGCTGT | 1.04 |
| TGCATATGTT | 1.07 |
| ATATTTTTCA | 0.966 |
| GGTGGTATAG | 0.996 |
| GTTGAGCGGA | 0.971 |
| ACAACCGGCA | 1.06 |
| TCTTACACAT | 1.02 |
| CATATCTTAA | 0.978 |
| GGCATAATCT | 1.05 |
| TAGTTATGAT | 0.974 |
| TATTAACCCG | 1.05 |
